# Experimental data as given in publication PMC4336329 (PLoS ONE, 2015).
# Hit rate of the full screen: of about 310,000 compounds, about 14,000 (4.5%) showed an effect of 50% or more. Effects have a minus sign here. The list shows a part of the results.
# Biological target: human ether-à-go-go-related gene (hERG) potassium channel (human, UniProt Q12809)
# Test: primary screen, population patch clamp on CHO cells stably expressing hERG
# 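Also: peak tail current of the secondary pulse compared with the same well before compound.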
# human ether-à-go-go-related gene (hERG) potassium channel, sequence (Q12809 whole entry, looked up): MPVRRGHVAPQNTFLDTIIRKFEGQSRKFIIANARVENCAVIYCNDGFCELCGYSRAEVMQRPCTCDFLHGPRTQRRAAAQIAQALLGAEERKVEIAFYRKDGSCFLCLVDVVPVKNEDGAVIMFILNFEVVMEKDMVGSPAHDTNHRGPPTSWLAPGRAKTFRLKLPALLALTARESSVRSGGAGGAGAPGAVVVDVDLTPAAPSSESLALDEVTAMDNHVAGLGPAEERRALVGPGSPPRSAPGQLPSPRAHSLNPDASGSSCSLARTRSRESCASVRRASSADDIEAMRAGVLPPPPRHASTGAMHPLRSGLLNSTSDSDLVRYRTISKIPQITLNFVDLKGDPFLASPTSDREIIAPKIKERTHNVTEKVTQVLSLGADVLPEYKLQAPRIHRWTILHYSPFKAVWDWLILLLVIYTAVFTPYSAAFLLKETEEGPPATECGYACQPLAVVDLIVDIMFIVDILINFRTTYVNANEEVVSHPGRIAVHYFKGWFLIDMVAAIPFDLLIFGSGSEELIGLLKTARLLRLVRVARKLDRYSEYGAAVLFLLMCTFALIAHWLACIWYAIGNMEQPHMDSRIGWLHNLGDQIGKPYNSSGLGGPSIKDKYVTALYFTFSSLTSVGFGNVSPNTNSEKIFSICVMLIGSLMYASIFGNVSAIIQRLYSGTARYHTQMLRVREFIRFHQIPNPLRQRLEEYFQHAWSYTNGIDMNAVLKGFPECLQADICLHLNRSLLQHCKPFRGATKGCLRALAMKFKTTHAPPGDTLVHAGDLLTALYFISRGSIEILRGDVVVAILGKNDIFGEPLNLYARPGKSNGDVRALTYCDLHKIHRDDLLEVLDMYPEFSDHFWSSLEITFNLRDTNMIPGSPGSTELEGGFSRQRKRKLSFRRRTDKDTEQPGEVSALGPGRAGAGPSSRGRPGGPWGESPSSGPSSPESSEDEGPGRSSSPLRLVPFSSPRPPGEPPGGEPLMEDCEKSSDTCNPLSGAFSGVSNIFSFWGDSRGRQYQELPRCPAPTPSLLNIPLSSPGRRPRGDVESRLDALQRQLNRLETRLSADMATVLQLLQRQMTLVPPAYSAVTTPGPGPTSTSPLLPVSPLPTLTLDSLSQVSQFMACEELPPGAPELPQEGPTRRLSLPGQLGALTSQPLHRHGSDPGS
row,SMILES,"hERG current change (%, negative = inhibition) at 10uM"
1,CSc1nc2ccsc2c(=O)n1-c1ccccc1,-3.55%
2,CN(C)C(CNC(=O)CCCN1C(=O)c2cccc3cccc(c23)C1=O)c1ccccc1 (stereo not shown),-46.2%
3,CCCCC(=O)Nc1cc([N+](=O)[O-])ccc1Cl,10.6%
4,Cc1ccccc1-c1cc(C(=O)N/N=C/c2cccnc2)c2ccccc2n1,-3.87%
5,CC1(C)Cc2c(sc3ncnc(N)c23)CO1,-3.03%
6,COc1ccc(C2=Nn3c(nnc3C(F)(F)F)SC2)cc1,7.16%
7,C/C(=N\Nc1ccc(S(N)(=O)=O)cc1[N+](=O)[O-])c1cccnc1,20.1%
8,CCCCn1c(N)c(N(CC)C(=O)C2CCC2)c(=O)[nH]c1=O,7.9%
9,COc1ccc(OC)c(/C=N/NC(=O)CCCC(=O)Nc2cccc(Br)c2)c1,12%
10,CC1=C(C(=O)OCC2CCCO2)C(c2ccc(F)cc2)NC(=O)N1 (stereo not shown),21.5%
11,COc1ccc(OC)c(NC(=O)CCn2ccnc2)c1,18.3%
12,COc1ccc(N(C(=O)c2ccc(F)cc2)C2=CC3CCC(C2)N3C)cc1.Cl (stereo not shown),-71.5%
13,CC(C)(C)NC(=O)CSc1nnc(-c2ccccn2)n1Cc1ccccc1,-7.05%
14,COc1ccc(OC)c(C2CC(=O)C3=C(C2)NC(=O)CC3c2ccc(O)c(OC)c2)c1 (stereo not shown),-5.31%
15,COc1cc(/C(C)=C/c2ccccc2)c2c(c1)oc1ccccc12,10.3%
16,COCCOc1ccc(C(F)(F)F)cc1NC(=O)COC(=O)C12CC3CC(CC(O)(C3)C1)C2,-42.3%
17,O=C(c1ccccc1)C1CCN(c2ncccc2[N+](=O)[O-])CC1,-15.8%
18,CCOC(=O)c1sc(N2C(=O)C(O)=C(C(=O)c3ccco3)C2c2cccc(Cl)c2)nc1C (stereo not shown),6.49%
19,CC(CCc1ccco1)NC(=O)Nc1cccc(F)c1 (stereo not shown),-42.4%
20,CCOC(=O)C1CCN(C(C)C(=O)c2c(C)[nH]c3cc(C)ccc23)CC1 (stereo not shown),-76.7%
21,COc1ccc2[nH]c3nc(SCc4nnc(-c5ccc(C)cc5)o4)nnc3c2c1,1.13%
22,O=C(c1n[nH]c2c1CCCC2)n1ccnc1,11.9%
23,COc1ccc(S(=O)(=O)N2CCc3cc(OC)c(OC)cc3C2)cc1,-13%

row,SMILES,"hERG current change (%, negative = inhibition) at 10uM"
1,CC(C)NS(=O)(=O)c1ccc(NC(=O)C(C)Oc2ccc(C(=O)c3ccccc3)cc2)cc1 (stereo not shown),-14.8%
2,COCCN(C(=O)c1cc(Cl)ccn1)c1c(N)n(Cc2ccccc2)c(=O)[nH]c1=O,7.36%
3,Cl.OC(CNC1CCCC1)COCCOc1ccc(Br)cc1 (stereo not shown),-27.4%
4,O=C(NCc1ccc(Cl)cc1)c1noc2c1CCCC2,-25.6%
5,CCCCN1C(=O)N(C)C2NC(=O)NC21 (stereo not shown),4.9%
6,CC(C)OCCCNC(=O)C(=O)NCCCOC(C)C,4.08%
7,COc1ccc(CCNc2oc(COc3ccccc3)nc2C#N)cc1,-7.91%
8,COc1cccc(-c2cnc(NCc3cc(Cl)ccc3O)n2C)c1.O=C(O)C(=O)O,-24.1%
9,COc1cc(C)c(Cl)cc1S(=O)(=O)n1ccnc1C,6.99%
10,COc1cc2c(C)nc(C)c(C#N)c2cc1OC.Cl,-5.92%
11,CC(=O)NC1(C(F)(F)F)N=C2SCCN2C1=O (stereo not shown),7.4%
12,O=C(NCC1CCCO1)C1CCCN1C(=O)Nc1ccc(Cl)cc1 (stereo not shown),41.4%
13,CCC(NC(=O)c1ccccc1NC(=O)c1ccccc1)C(=O)OC (stereo not shown),11.3%
14,CC(Sc1nc2c(N)ncnc2n1CCOc1ccccc1)C(=O)O (stereo not shown),19.1%
15,COCCNC(=O)c1nn2c(C(F)(F)F)cc(-c3ccccc3)nc2c1Cl,10.2%
16,CC(NC(=O)Nc1ccccc1)C(c1ccccc1)N1CCOCC1 (stereo not shown),22.8%
17,O=C(Nc1ccccc1)c1ccccc1OCc1ccc(S(=O)(=O)N2CCOCC2)cc1,24.2%
18,CCOC(=O)N1CCC(NC(=O)c2cc(C(=O)NCc3ccc(F)cc3)ccc2CO)CC1,-0.533%
19,CCN(CC)S(=O)(=O)c1ccc(OC)c(NC(=O)CSc2cc(Cl)ccc2Cl)c1,-2.76%
20,Cc1ccc(NC(=S)N2CCC(N(C)CC3CCCO3)CC2)cc1C (stereo not shown),-6.3%
21,Cc1cc2cc(CNC(=S)NCc3ccccc3)ccc2n1C,28.4%
22,Brc1cccc2sc(N3CCCC3)nc12,-3.23%
23,CN(C)C(=O)c1cc(C(=O)c2ccc(F)cc2C(F)(F)F)c[nH]1,7.24%
